Experimental data reported in ChEMBL document CHEMBL1201862, “PubChem BioAssay data set” (2004).
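Following 48 hours of exposure in 96-well plates, responses at five concentrations were used to interpolate endpoints linearly. The concentration for 50% growth inhibition is given as GI50.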 The source made the active and inactive calls. Rule as the data show it: active = GI50 up to about 1.1 µM and inactive = higher.

Tested on: NCI-H322M
Assay: inhibition of tumour cell growth, NCI panel, 48 h

| SMILES | GI50 |
| --- | --- |
| N=C(N)NCCCC(NCc1c2ccccc2nc2ccccc12)C(=O)O (stereo not drawn) | inactive: > 70.1 µM |
| Cn1c(=O)c2nc(CSCc3ccccc3)[nH]c2n(C)c1=O | inactive: > 100 µM |
| O=C1CC(c2c[nH]c3ccccc23)C(=O)N1 (stereo not drawn) | inactive: > 100 µM |
| Oc1cc(-n2cccn2)c(O)cc1-n1cccn1 | inactive: > 70.3 µM |
| CCCc1c(O)nc2ccccc2c1O | inactive: > 100 µM |
| Nc1nc(O)c2c(n1)NCN(CCCN1CCOCC1)C2 | inactive: > 100 µM |
| COC(=O)C12OCC34C(CC5C(C)=C(O)C(=O)CC5(C)C3C(O)C1O)OC(=O)C(OC(=O)C=C(C)C)C24 (stereo not drawn) | inactive: > 500 µM |
| O=[N+]([O-])c1nccn1CCCNc1ccnc2cc(Cl)ccc12 | inactive: 4.74 µM |
| CCn1c2nc(=O)n(CCCCCCCCSC(c3ccccc3)(c3ccccc3)c3ccccc3)c(=O)c-2nc2ccccc21 | inactive: 14.8 µM |
| Nc1ccc(Cc2c(N)[nH]c(=O)[nH]c2=O)cc1 | inactive: > 100 µM |
| CN(C)c1ccc(/C=C(\C#N)c2nc(-c3cc4ccccc4oc3=O)cs2)cc1 | inactive: > 50 µM |
| CC(=O)OC1COC(N2C(=O)C(=O)c3cc(Br)ccc32)C(OC(C)=O)C1OC(C)=O (stereo not drawn) | inactive: > 100 µM |
| CC(=O)Oc1cccc2c1C(=O)CCCC2 | inactive: > 100 µM |
| COc1c(OC)c(OC)c2c(=O)c(OC)c(-c3ccc4c(c3)OCO4)oc2c1OC | inactive: > 100 µM |
| N#Cc1ccccc1NC(=O)C(=O)C(C(=O)c1ccccc1F)C1OC(=O)c2ccccc21 (stereo not drawn) | inactive: 36.9 µM |
| O=c1cc2ccccc2nn1-c1ccccc1Cl | inactive: 84.7 µM |
| NNC(=O)N/N=C(/CC1(O)C(=O)Nc2ccc(Br)cc21)c1ccccc1 (stereo not drawn) | inactive: 33.6 µM |
| c1ccc(-c2cc(-c3cccs3)c(-c3cccs3)s2)cc1 | inactive: > 100 µM |
| COc1cc2c3cc1Oc1c(O)c(OC)cc4c1C(Cc1ccc(O)c(c1)Oc1ccc(cc1)CC3N(C)CC2)N(C)CC4 (stereo not drawn) | inactive: 17.2 µM |
| COc1ccc(C(c2cc(OC)c(OC)c(OC)c2)N2C(=O)CCC2C(=O)O)cc1 (stereo not drawn) | inactive: 43.3 µM |
| O=C(O)CCCC#CCCCC(=O)O | inactive: > 100 µM |
| CC[As](CC)SCC1OC(OC(C)=O)C(OC(C)=O)C(OC(C)=O)C1OC(C)=O (stereo not drawn) | inactive: 19.1 µM |
| O=C(c1cc2c(c3ccccc13)NCCN=C2C(F)(F)F)C(F)(F)F | inactive: 32.5 µM |
| Cc1cccc(C)c1NC(=O)CCc1n[nH]c(=S)o1 | inactive: > 100 µM |
| O=C1C(Cl)=CC2(C=C1Cl)CCNC1=C2C(=O)c2nc[nH]c2C1=O | inactive: 46.7 µM |

| SMILES | GI50 |
| --- | --- |
| C#CCCOC1(OC)N=NC(C)(C)O1 (stereo not drawn) | inactive: > 100 µM |
| CCOC(=O)C(=O)C(/C(=N/N(C)C)C(=O)Nc1ccc(C)cc1C)c1nc2ccccc2nc1O (stereo not drawn) | inactive: > 100 µM |
| CN(CCCNC(=O)c1nn(-c2ccccc2)c2c1Cc1ccccc1-2)CCCNC(=O)c1nn(-c2ccccc2)c2c1Cc1ccccc1-2 | inactive: 1.77 µM |
| FC(F)(F)c1cccc(-c2nc3ccccc3c3c2[C@@]2(N4CCCC4)CCCC[C@@H]32)c1 | inactive: 50.2 µM |
| NC(Cc1c[nH]c2ccccc12)P(=O)(O)O (stereo not drawn) | inactive: > 100 µM |
| C[N+]1(C(CO)Cc2c[nH]c3ccccc23)Cc2ccccc2C1 (stereo not drawn) | inactive: > 100 µM |
| CN(C1=NCCO1)c1cccc2c1CCCC2 | inactive: 9.71 µM |
| CCOP(=O)(OCC)C(C(=O)OC)C(=O)C(=O)Nc1cccc([N+](=O)[O-])c1 (stereo not drawn) | inactive: > 100 µM |
| Cc1ccc(N2Cc3c(ccc4ccccc34)OP2(=S)N2CCCC2)cc1 (stereo not drawn) | inactive: > 63.4 µM |
| Cc1c(CCOC=O)c(=O)[nH]c2nncn12 | inactive: > 100 µM |
| CCOC(=O)CC(c1ccccc1)C(C)(C(=O)OCC)C(=O)OCC (stereo not drawn) | inactive: > 100 µM |
| COc1ccc(C=C2C(C)=NN(c3cccc(Cl)c3)C23C(Cl)C(=O)N3c2nc3ccccc3s2)cc1 (stereo not drawn) | inactive: 26.6 µM |
| CN(c1nc(=[N+](C)C)ss1)C1CCCCC1 | inactive: > 100 µM |
| COc1ccc(C2(CC(C)O)SCCCS2)cc1 (stereo not drawn) | inactive: > 100 µM |
| O=CC1CCCc2ccccc21 (stereo not drawn) | inactive: > 100 µM |
| Nc1nc(N)c2cc(CNc3ccc(C(=O)NC(CC(=O)O)C(=O)O)c(Cl)c3)ccc2n1 (stereo not drawn) | active: 0.0805 µM |
| CC1CC2C(=O)N(c3ccccc3)C(=O)C2c2c1c1ccccc1n2Cc1ccccc1 (stereo not drawn) | inactive: > 100 µM |
| CC(C)(C)n1c(=O)n2c(-c3ccccc3)c(-c3ccccc3)n2c1=O | inactive: > 100 µM |
| CC1(C)C2=CCCC(=O)[C@@]2(C)CC[C@@H]1O | inactive: > 100 µM |
| S=C(N/N=C(/c1ccccc1)c1ccccn1)N1CCCCCC1 | active: 0.0513 µM |
| CC(=O)C(CN(Cc1ccccc1)Cc1ccccc1)C(c1ccccc1)c1c(O)c2ccccc2oc1=O (stereo not drawn) | inactive: > 100 µM |
| Cc1ccc(O)c(/N=N\c2c(O)cc(S(=O)(=O)O)c3ccccc23)c1 | inactive: 53.5 µM |
| N#CC1(C#N)C(C#N)(C#N)C12CCCCCC2 | inactive: 20.3 µM |
| CCc1ccc2c(c1)/C(=C1/Nc3ccccc3C1=O)C(=O)N2 | inactive: 9.1 µM |
| COC(=O)/C=C1/OC(c2ccccc2)=C(Cl)C1=O | inactive: 27.2 µM |

| SMILES | GI50 |
| --- | --- |
| COC(=O)C1CC2C=CC1N(C(=O)OCc1ccccc1)C2 (stereo not drawn) | inactive: > 100 µM |
| O=C(C=P(c1ccccc1)(c1ccccc1)c1ccccc1)CC(=S)CC(=O)C=P(c1ccccc1)(c1ccccc1)c1ccccc1 | inactive: 8.81 µM |
| COc1cc(/C=N/n2c(C)n[nH]c2=O)cc(OC)c1OC | inactive: > 100 µM |
| CSc1nc(NC2OC(COC(C)=O)C(OC(C)=O)C(OC(C)=O)C2OC(C)=O)c2c(n1)OCC2=O (stereo not drawn) | inactive: > 100 µM |
| c1cc(-c2ccc(Oc3ccc(-c4ccncc4)cc3)cc2)ccn1 | inactive: 23.8 µM |
| CC(=O)Nc1ccc(C2C(C(=O)Nc3ccccc3C)=C(C)NC(C)=C2C(=O)Nc2ccccc2C)cc1 | inactive: > 38.2 µM |
| CN(CC(=O)O)c1ncc2c(n1)-c1ccccc1CC2 | inactive: > 100 µM |
| Fc1ccc(C2SCc3nc4ccccc4n32)cc1F (stereo not drawn) | inactive: 54 µM |
| CC(C)(C)N1CC1CNC(=O)C(=O)NCC1CN1C(C)(C)C (stereo not drawn) | inactive: 5.19 µM |
| COC(NC(N)=O)C(=O)O (stereo not drawn) | inactive: > 100 µM |
| Cc1ccc(/C=C/C(=O)c2ccc(Cl)c(Cl)c2)cc1 | inactive: > 100 µM |
| N#Cc1nc(C2SCCCS2)oc1N | inactive: > 100 µM |
| CCOC(=O)c1sc2nc(SC)nc3c2c1NCN3c1ccc(F)c(F)c1 | inactive: > 23.7 µM |
| CCNCCCCNCC | inactive: > 3750 µM |
| O=c1[nH]cnc2c1ncn2[C@@H]1C[C@@H]1CO | inactive: > 100 µM |
| COc1cc2c(c(O)c1OC)CC1CCC(=O)N1C2c1cccc2ccccc12 (stereo not drawn) | inactive: 34.2 µM |
| C/C(=N\[N+](C)(C)C)c1ccc(C)c(C)c1 | inactive: > 100 µM |
| OC1c2[nH]c3ccccc3c2CCN2CCCCC12 (stereo not drawn) | inactive: > 100 µM |
| CC1=C(C(=O)Nc2cccc(Cl)c2)C(c2ccccc2F)C(C(=O)Nc2cccc(Cl)c2)=C(C)N1 | inactive: 14.6 µM |
| N#CC1(C#N)NC(c2cccs2)C(C#N)(C#N)NC1c1cccs1 (stereo not drawn) | inactive: 57 µM |
| N#Cc1nc(-c2ccccn2)oc1N | inactive: > 100 µM |
| COc1ccccc1NC(=O)C1=C(C)NC(C)=C(C(=O)Nc2ccccc2OC)C1/C=C/c1ccccc1 | inactive: > 100 µM |
| C[C@H]1CC(=O)C[C@@H]2CC[C@@H]3[C@H](CC[C@]4(C)C(OC(=O)c5cccc6c(=O)c7ccccc7[nH]c56)CC[C@@H]34)[C@]21C (stereo partly drawn) | inactive: 58.2 µM |
| Clc1ccccc1/C=C/c1cscn1 | inactive: > 100 µM |
| CCOP1(=O)C=CC(Cl)=C(C)C1 (stereo not drawn) | inactive: 23 µM |

| SMILES | GI50 |
| --- | --- |
| CC1CCc2sc3nc4n(c(=O)c3c2C1)CC(C)S4 (stereo not drawn) | inactive: 25.5 µM |
| C=C(C)C1Cc2c(cc(OC)c3c(=O)c4cccc(O)c4oc23)O1 (stereo not drawn) | inactive: 36.1 µM |
| Cn1c2ccccc2c2c3c(c4c5ccccc5n(C)c4c21)C(=O)N(c1ccccc1)C3=O | inactive: > 100 µM |
| CCCCn1c(C)c(C(=O)OCC)c2cc(OCc3ccc(C(=O)Nn4c(C)ccc4C)cc3)c(Br)cc21 | inactive: > 100 µM |
| CN(C)CCNC(=O)c1cc(-c2nccn2C)nc2ccccc12 | inactive: > 100 µM |
| O=C(/C=C/c1c(O)ccc2ccccc12)c1ccc2ccccc2c1 | inactive: > 100 µM |
| CC1(O)C2(c3ccccc3)CCC[N+]1(C)CC2 (stereo not drawn) | inactive: > 100 µM |
| NC(=O)C(=O)N/N=C(\CC1(O)C(=O)Nc2ccccc21)c1ccc2ccccc2c1 (stereo not drawn) | inactive: > 10 µM |
| CC(C(=O)O)C1Nc2ccccc2NC1=O (stereo not drawn) | inactive: > 100 µM |
| CN1C=Cc2nccc3cc4c(c1c23)OCO4 | inactive: 1.63 µM |
| C/C(CC(=O)Nc1cccc(C)c1C)=N\NC(N)=S | inactive: > 100 µM |
| O=C1c2c(Br)sc(Br)c2[C@H]2NC(=S)O[C@@H]12 | inactive: 19 µM |
| COc1ccc(OC)c2c1C(=O)C1CC1(Br)C2=O (stereo not drawn) | inactive: > 100 µM |
| O=c1c2ccccc2n2n1Cc1ccccc1C2 | inactive: 75.7 µM |
| Nc1ccc(C(=O)NN2C(=O)C(Cl)C2c2ccccc2)cc1 (stereo not drawn) | inactive: > 100 µM |
| CCOC(=O)C1C(=O)c2ccccc2CN1Cc1ccccc1 (stereo not drawn) | inactive: > 100 µM |
| CCOC(=O)Nc1ccc(S(=O)(=O)OC)cc1.CCOC(=O)Nc1ccc(S(=O)(=O)OC)cc1.Cc1cn(C2CC(O)C(CO)O2)c(=O)[nH]c1=O | inactive: > 100 µM |
| COc1cccc(/C=N/[N-]C(=S)Nc2ccccc2)c1[O-].O.[Zn+2] | inactive: 51.4 µM |
| CC1(C)CCC[C@@]2(C)C1CC[C@H]1CC(O)C3(C)CCC12C3 (stereo partly drawn) | inactive: 17.5 µM |
| CC1CC(=O)CC[C@@H]1OCc1ccccc1 (stereo partly drawn) | inactive: > 100 µM |
| NC(=O)C1=C(c2ccccc2)c2ccccc2C1=O | inactive: 23 µM |
| COc1cc2c(cc1OC)C(=O)/C(=C/c1cc(Cl)cc(Cl)c1)C2 | inactive: 24.6 µM |
| CC(O)c1cc2c(s1)C(=O)c1scc(C(C)O)c1C2=O (stereo not drawn) | inactive: 1.7 µM |
